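Five concentrations, 48 hours, 96-well plates. GI50 marks 50% less growth.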 Activity calls are given as the source filed them. No stated cut-off is given here; in the data, active = GI50 up to about 1.1 µM and inactive = higher.
System: NCI-H322M
Assay: NCI tumour cell line growth inhibition, 48 h

Row | Compound | GI50
1 | COc1ccc(/N=C/c2ccc(N(CCC#N)S(=O)(=O)c3ccccc3)cc2)cc1 | inactive: > 100 µM
2 | Oc1ccccc1CNCc1ccccc1O | inactive: > 100 µM
3 | NCCC1([N+](=O)[O-])CCNCC1 | inactive: > 100 µM
4 | CN(C)CCNc1ccc2ncn3c4ccc(O)cc4c(=O)c1c23 | inactive: 1.37 µM
5 | N#Cc1c(C#N)c(SSc2c(C#N)c(C#N)c(N)n2-c2ccccc2)n(-c2ccccc2)c1N | inactive: 22.7 µM
6 | c1ccc(CCN2CCCCCC2)nc1 | inactive: > 100 µM
7 | COC1CC(C)(NC(C)=O)C2OC(c3ccccc3)OCC2O1 (stereo not given) | inactive: > 100 µM
8 | CN(C)CC1CCCC/C1=N/OC(=O)c1ccc(Cl)c(Cl)c1 (stereo not given) | inactive: > 100 µM
9 | C[C@@H]1C(=O)O[C@H]1[C@H](O)CO | inactive: > 100 µM
10 | N#Cc1cc(NC(=O)c2ccccc2)c(=O)n2c1[nH]c1ccccc12 | inactive: 30.9 µM
11 | Nc1ccc2c(c1)CC1c3ccccc3C(C2)c2ccccc21 | inactive: > 100 µM
12 | O=c1[nH]nc(-c2ccccc2)n1/N=C/c1c(O)ccc2ccccc12 | inactive: 40 µM
13 | CC1C2=CC=C(O2)C(C)(C)C2=CC=C(O2)C(C)(C)C2=CC=C(O2)C(C)(C)C2=CC=C1O2 | inactive: > 100 µM
14 | CCC(=O)NC(Nc1cccc(F)c1)(C(F)(F)F)C(F)(F)F | inactive: > 100 µM
15 | Cn1c2ccccc2n2c3nc4ccccc4nc3c(C#N)c12 | inactive: 98.4 µM
16 | Cc1cc(O)nc(NN2C(Cl)C(=O)C2c2ccccc2O)n1 (stereo not given) | inactive: 3.75 µM
17 | COC(=O)CCc1ccc2c(c1)CC1(C2)Cc2ccc3c(c2C1)CCC3 (stereo not given) | inactive: > 100 µM
18 | O=C(c1ccc(Cl)c(Cl)c1)N(C(=S)OC12CC3CC(CC(C3)C1)C2)c1ccccc1 | inactive: 40.2 µM
19 | CC(C)Oc1cccc(N2C(NCCc3c[nH]c4ccccc34)=Nc3ccncc3S2(=O)=O)c1 | inactive: 84.7 µM
20 | CCOC(=O)C1=C(N)N2C(=N[C@H]3CCCC[C@@H]32)N=C1 | inactive: > 100 µM
21 | Cn1c2c(cc(-c3ccccc3)c1=O)COc1ccccc1-2 | inactive: 42.3 µM
22 | CCCCCCCCCCCOCCC1C(C(C)OCCN2CCCC2)OC2OC(C)(C)OC21 (stereo not given) | inactive: 2.92 µM
23 | Cc1n[nH]c(=O)n1N1C(=O)c2ccccc2C1=O | inactive: > 100 µM
24 | CC1=C(C(=O)CC(=O)C(=O)Nc2cccc(Cl)c2C)Sc2ccccc2N1 | inactive: > 100 µM

Row | Compound | GI50
25 | CN(CCN1C(=O)c2cccc3cccc(c23)C1=O)CCN1C(=O)c2cccc3cccc(c23)C1=O | inactive: 10.6 µM
26 | C/C=C/[C@@H]1O[C@H](CC#C[Si](C)(C)C)[C@@]2(C=O)C(C)=CC[C@H](C(C)C)[C@@H]12 | inactive: 43.4 µM
27 | CCN(CC)/[N+]([O-])=N/OCOC | inactive: > 100 µM
28 | COC(=O)C(CC(=O)Nc1ccc(C)cc1)C(=O)C(=O)Nc1ccccc1C(C)C (stereo not given) | inactive: > 100 µM
29 | O=C1c2ccccc2N(O)C1(c1ccccc1)C1CCCC=C1N1CCOCC1 (stereo not given) | inactive: > 100 µM
30 | Cc1ccc(Nc2c3c(c(C#N)c4nc5ccccc5n24)CCCC3)cc1 | inactive: 31.6 µM
31 | C=CC(C)(C)c1cc([C@@H]2COc3cc(O)ccc3C2=O)c(O)c(OC)c1OC | inactive: 21.8 µM
32 | O=C1CCCC(=O)N1n1c(Cc2ccc(Cl)cc2)n[nH]c1=O | inactive: > 100 µM
33 | COC(=O)C12C34C=CC5(CCC6(C=CC1(CC3)O6)C52C(=O)OC)O4 (stereo not given) | inactive: > 100 µM
34 | CC1(C)OCC2OC3([C@H]4OC(C)(C)O[C@@H]4CO)OC(C)(C)OC3C2O1 (stereo not given in full) | inactive: > 100 µM
35 | Cc1ccc(S(=O)(=O)CN2C(=O)C(c3ccccc3)(c3ccccc3)C23OC(c2ccc(Cl)cc2)=CC3=O)cc1 (stereo not given) | inactive: > 10 µM
36 | CN(C)CCCNC(=O)c1cc(NS(=O)(=O)c2ccc3c(c2)C(=O)c2ccccc2C3=O)cn1C | inactive: 21.6 µM
37 | NC(=O)C(=Cc1ccc(CP(=O)(O)O)cc1)C(N)=O | inactive: > 100 µM
38 | Cc1cc(C)c2c(c1C)CN1CN2Cc2c(C)c(C)cc(C)c21 | inactive: > 100 µM
39 | S=C1CNC(=S)CN1 | inactive: > 100 µM
40 | CCCN1CC=C(c2cc(C(=O)OCC)[nH]c2-c2cc(C)no2)C1=O | inactive: > 100 µM
41 | Oc1cc(Cl)cc2cc(Cl)cnc12 | inactive: 11.5 µM
42 | CCC(=N\NC(N)=S)/C(C)=N/O | inactive: > 100 µM
43 | CN(C)CCC(/C=C/c1ccccc1)=N\Nc1ccc(Cl)cc1Cl | inactive: 19.7 µM
44 | CN(C)CCCN1C(=S)N(CCCN(C)C)c2c3cc(O)ccc3nc3c([N+](=O)[O-])ccc1c23 | inactive: 4.57 µM
45 | COc1ccc2c(c1)[C@@]13CCCC[C@H]1[C@@H](C2)N(C)CC3=O | inactive: 43 µM
46 | Cc1coc2c1[C@@H](O)[C@@]1(C)[C@H](CCC[C@@H]1C)C2 | inactive: 45.2 µM
47 | COc1ccc(C(=O)/C=C/c2ccc(OCC(=N)N)cc2)cc1 | inactive: 14.5 µM
48 | CNc1nnnn1C1OC(CO)C(O)C1O (stereo not given) | inactive: > 100 µM

Row | Compound | GI50
49 | N/N=C(\c1nc2ccc(Cl)cc2nc1O)C(O)c1ccc(Cl)c(Cl)c1 (stereo not given) | inactive: > 100 µM
50 | C[C@H]1CC[P+](C)(c2ccccc2)C1 (stereo not given in full) | inactive: > 100 µM
51 | Nc1ccc2nc(N)n[n+]([O-])c2c1 | inactive: > 100 µM
52 | c1csc(-c2ccc(-c3cccc4nsnc34)s2)c1 | inactive: > 100 µM
53 | CCCCC(/C=N/NC(=N)N)CC.Cc1cc(O)c(C(C)C)cc1S(=O)(=O)O | inactive: > 100 µM
54 | O=C(CCC/C(CC(=O)c1ccc(Br)cc1)=N\O)Nc1ccccc1 | inactive: > 100 µM
55 | COc1ccc2c(c1)c1c3c(ccc4ncn2c43)N(CCO)CCN=1 | active: 0.209 µM
56 | CCCCSN1C(=O)c2ccccc2C1=S | inactive: > 100 µM
57 | O=C(OCc1ccccc1)N1CCNCCNCCN(C(=O)OCc2ccccc2)CCNCC1 | inactive: 12.6 µM
58 | CCCC(=O)OCC1OC(n2cc(F)c(=O)[nH]c2=O)C(F)C1O (stereo not given) | inactive: 33.5 µM
59 | COc1ccc2c(c1)C(CCN)C(=O)N2 (stereo not given) | inactive: > 100 µM
60 | Cc1noc2cccc(OCc3ccccc3)c12 | inactive: 60.4 µM
61 | CCOC(=O)c1c(-c2ccccc2)nc2ccccc2c1O | inactive: > 100 µM
62 | O=C(Nc1nc2ccccc2n1Cc1ccc(Cl)cc1)NC12CC3CC(CC(C3)C1)C2 | inactive: 27.6 µM
63 | OCCOCn1cc(Cn2ncc3c(SCc4ccccc4)ncnc32)nn1 | inactive: 57.3 µM
64 | O=C(Nc1cccc2ccccc12)Oc1ccccc1C1CCCCC1 | inactive: 22.4 µM
65 | Cc1ccc(-c2cc(-c3ccco3)c(C#N)c(=O)n2C2OC(OC(=O)c3ccccc3)C(OC(=O)c3ccccc3)C2OC(=O)c2ccccc2)cc1 (stereo not given) | inactive: > 100 µM
66 | [N-]=[N+]=Nc1ccc2c(c1)Sc1ccccc1N2CCCCN1CCN(Cc2ccc(C(=O)c3ccc(CSCC(N)C(=O)O)cc3)cc2)CC1 (stereo not given) | inactive: 22.6 µM
67 | O=S(=O)(O)c1cc(O)c(/N=N\C2S(=O)(=O)OCCOS2(=O)=O)c2ccccc12 | inactive: > 100 µM
68 | COc1ccc(CCc2ccc3c(c2)OCO3)cc1 | inactive: 92.5 µM
69 | CC1=C[C@@H]2Cc3nc4cc(Cl)ccc4c(N)c3[C@H](C1)C2 | inactive: 10.5 µM
70 | CCOC(=O)c1sc2c(c1OC(=O)c1ccco1)c(=O)n(-c1ccccc1)c(=S)n2-c1ccccc1 | inactive: 46.1 µM
71 | COc1cc(N(CCC#N)CCC#N)ccc1C(=N/NC(=O)c1cc(Br)ccc1O)/N=N/c1ccc(C)cc1 | inactive: 19 µM
72 | O=C([O-])C1([n+]2c(-c3ccccc3)cc(-c3ccccc3)cc2-c2ccccc2)CC1 | inactive: > 100 µM

Row | Compound | GI50
73 | COc1ccccc1NC(=O)C1=C(C)NC(C)=C(C(=O)Nc2ccccc2OC)C1c1ccc(C2C(C(=O)Nc3ccccc3OC)=C(C)NC(C)=C2C(=O)Nc2ccccc2OC)cc1 | inactive: 3.23 µM
74 | COc1ccc2c(c1)OCC1Cc3cc4c(cc3OC21)OCO4 (stereo not given) | inactive: 85.7 µM
75 | CCCCCCCCC(=O)CCCCCCCCC(=O)O | inactive: 24.6 µM
76 | Cc1c2c(n(CC(c3ccccc3)c3ccccc3)c1C)NN=C(C#N)S2(=O)=O | inactive: > 100 µM
77 | c1cncc(O[Si](Oc2cccnc2)(Oc2cccnc2)Oc2cccnc2)c1 | inactive: > 100 µM
78 | COc1cccc(N2CCc3c(C)c(C#N)c4nc5ccccc5n4c32)c1 | inactive: > 100 µM
79 | O=C(Cn1nc(Br)c(Br)c1Br)c1ccccc1 | inactive: 30.1 µM
80 | COc1ccc(P2(=S)Oc3ccccc3-c3ccccc3O2)cc1 | active: 0.55 µM
81 | CC12CC(=O)OC(Cc3ccccc31)O2 (stereo not given) | inactive: > 100 µM
82 | Cc1cc2c3ccccc3[nH]c2c2ccnc(C)c12 | inactive: 13.7 µM
83 | COc1ccc2c(c1)CC[C@@H]1C2CC[C@]2(C)C(=O)NC(=O)CC12 (stereo not given in full) | inactive: > 100 µM
84 | CC1C2CC(CC2N)C1(C)C (stereo not given) | inactive: > 100 µM
85 | CCCC(O)[C@@H](O)c1ccc2c(c1O)C(=O)c1c(OC)cccc1C2=O (stereo not given in full) | inactive: 39.8 µM
86 | O=C1/C(=C/c2cccc(F)c2)CCCc2ccccc21 | inactive: 19.5 µM
87 | CSc1cccc(-n2c3nc(=O)n(C)c(=O)c-3nc3ccccc32)c1 | inactive: 11 µM
88 | CC(=O)Oc1ccc(/C=C/C(=O)O[C@H]2CCCC[C@@H]2OC(=O)/C=C/c2ccc(OC(C)=O)c(OC(C)=O)c2)cc1OC(C)=O | inactive: 17.5 µM
89 | c1ccc([P+](Cc2ccc(C[P+](c3ccccc3)(c3ccccc3)c3ccccc3)cc2)(c2ccccc2)c2ccccc2)cc1 | inactive: > 100 µM
90 | CN(C)CCN1Nc2c3ccccc3nc3c(C(=O)NCCCN(C)CCCNC(=O)c4ccc5c6c(c7ccccc7nc46)NN5CCN(C)C)ccc1c23 | active: < 0.01 µM
91 | Cc1ccc(-c2cc(O)c3cc4c(cc3n2)OCO4)cc1 | inactive: 2.73 µM
92 | O=C(OCc1ccc([N+](=O)[O-])cc1)N1c2ccccc2[C@@]23O[C@]24CCC[C@H]3C#C/C=C\C#C[C@H]14 | inactive: > 100 µM
93 | CCCNC1=Nc2ccccc2[C@@H]2N(C)c3ccccc3C(C)C[C@]12C (stereo not given in full) | inactive: 20.8 µM
94 | CCN(CC)CCCOc1cc2c(cc1OC)C(=O)N1CCC[C@H]1C=N2 | inactive: > 100 µM
95 | O=c1c(Cc2ccccc2Cc2c(O)oc3ccccc3c2=O)c(O)oc2ccccc12 | inactive: > 100 µM
